{"sequences": {"note": "Sequences of proteins named here, by UniProt entry; tags and fusion partners are left off. Residues count along the entry.", "UniProt P19022, residues 160-906": "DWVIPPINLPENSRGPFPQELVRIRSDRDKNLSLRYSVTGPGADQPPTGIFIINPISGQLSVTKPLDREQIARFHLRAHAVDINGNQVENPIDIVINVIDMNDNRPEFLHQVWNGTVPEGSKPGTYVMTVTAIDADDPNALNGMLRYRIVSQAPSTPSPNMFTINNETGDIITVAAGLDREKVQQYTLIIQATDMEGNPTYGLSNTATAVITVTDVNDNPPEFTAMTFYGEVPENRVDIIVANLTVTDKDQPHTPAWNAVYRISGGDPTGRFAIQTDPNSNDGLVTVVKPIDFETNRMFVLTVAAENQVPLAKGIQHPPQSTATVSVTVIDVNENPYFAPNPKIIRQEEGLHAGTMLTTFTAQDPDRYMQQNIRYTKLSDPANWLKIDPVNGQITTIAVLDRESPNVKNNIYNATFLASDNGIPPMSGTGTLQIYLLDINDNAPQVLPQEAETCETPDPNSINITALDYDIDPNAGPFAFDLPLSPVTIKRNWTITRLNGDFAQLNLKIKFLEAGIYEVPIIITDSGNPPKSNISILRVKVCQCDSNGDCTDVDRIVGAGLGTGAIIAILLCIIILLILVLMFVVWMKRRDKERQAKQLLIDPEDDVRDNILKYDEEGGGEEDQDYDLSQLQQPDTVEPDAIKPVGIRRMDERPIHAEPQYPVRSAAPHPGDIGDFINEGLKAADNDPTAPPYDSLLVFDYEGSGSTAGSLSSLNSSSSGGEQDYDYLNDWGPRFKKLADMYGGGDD", "UniProt P35222": "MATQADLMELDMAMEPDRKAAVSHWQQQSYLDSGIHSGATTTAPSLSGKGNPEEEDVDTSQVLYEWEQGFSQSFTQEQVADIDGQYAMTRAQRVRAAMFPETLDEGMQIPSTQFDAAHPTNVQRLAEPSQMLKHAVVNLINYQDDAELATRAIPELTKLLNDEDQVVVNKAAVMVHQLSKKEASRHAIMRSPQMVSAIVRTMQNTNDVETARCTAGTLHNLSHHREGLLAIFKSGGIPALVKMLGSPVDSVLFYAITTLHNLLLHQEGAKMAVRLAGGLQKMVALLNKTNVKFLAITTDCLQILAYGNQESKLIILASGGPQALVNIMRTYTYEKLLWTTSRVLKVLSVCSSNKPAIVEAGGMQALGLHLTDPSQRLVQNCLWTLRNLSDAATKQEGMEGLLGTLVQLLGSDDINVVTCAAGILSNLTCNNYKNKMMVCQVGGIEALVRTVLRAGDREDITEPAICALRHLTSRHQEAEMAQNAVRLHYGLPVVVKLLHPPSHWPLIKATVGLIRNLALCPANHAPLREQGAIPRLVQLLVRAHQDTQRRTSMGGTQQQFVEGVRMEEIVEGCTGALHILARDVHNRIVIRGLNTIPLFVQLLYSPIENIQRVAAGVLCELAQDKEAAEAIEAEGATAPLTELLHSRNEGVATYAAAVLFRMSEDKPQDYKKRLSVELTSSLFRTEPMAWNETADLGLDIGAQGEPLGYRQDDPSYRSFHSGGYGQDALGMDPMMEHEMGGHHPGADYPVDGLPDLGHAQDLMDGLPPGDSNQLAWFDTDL", "UniProt Q02248": "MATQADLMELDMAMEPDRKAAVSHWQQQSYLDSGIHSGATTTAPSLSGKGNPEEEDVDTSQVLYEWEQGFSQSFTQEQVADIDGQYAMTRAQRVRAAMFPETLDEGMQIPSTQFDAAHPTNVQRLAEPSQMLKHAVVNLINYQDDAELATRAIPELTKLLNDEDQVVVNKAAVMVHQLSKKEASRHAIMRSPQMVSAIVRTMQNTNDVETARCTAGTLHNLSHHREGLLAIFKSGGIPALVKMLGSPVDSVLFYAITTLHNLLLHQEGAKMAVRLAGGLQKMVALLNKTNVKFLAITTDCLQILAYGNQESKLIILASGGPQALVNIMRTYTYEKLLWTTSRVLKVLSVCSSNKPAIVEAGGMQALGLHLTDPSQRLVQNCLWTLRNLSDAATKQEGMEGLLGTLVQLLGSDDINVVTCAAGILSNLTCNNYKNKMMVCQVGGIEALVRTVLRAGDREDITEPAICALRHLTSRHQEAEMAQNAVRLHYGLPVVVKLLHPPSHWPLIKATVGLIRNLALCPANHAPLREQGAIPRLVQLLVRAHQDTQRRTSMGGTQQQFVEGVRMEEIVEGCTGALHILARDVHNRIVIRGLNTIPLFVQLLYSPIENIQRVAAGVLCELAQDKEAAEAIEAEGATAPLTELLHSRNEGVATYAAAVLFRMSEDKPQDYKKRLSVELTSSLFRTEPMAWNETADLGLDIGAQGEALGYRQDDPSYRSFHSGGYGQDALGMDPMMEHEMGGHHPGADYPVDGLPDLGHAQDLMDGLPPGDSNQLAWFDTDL"}, "source": "paper PMC5524754", "about": "“Angiopoietin-like 4 induces a β-catenin-mediated upregulation of ID3 in fibroblasts to reduce scar collagen expression” (Scientific Reports, 2017)", "key": {"[1]": {"molecular_target": "T1, cadherin-11 (CDH11), endogenous in human primary dermal fibroblasts (human (endogenous in primary dermal fibroblasts)) (UniProt P55287)", "T1 sequence": "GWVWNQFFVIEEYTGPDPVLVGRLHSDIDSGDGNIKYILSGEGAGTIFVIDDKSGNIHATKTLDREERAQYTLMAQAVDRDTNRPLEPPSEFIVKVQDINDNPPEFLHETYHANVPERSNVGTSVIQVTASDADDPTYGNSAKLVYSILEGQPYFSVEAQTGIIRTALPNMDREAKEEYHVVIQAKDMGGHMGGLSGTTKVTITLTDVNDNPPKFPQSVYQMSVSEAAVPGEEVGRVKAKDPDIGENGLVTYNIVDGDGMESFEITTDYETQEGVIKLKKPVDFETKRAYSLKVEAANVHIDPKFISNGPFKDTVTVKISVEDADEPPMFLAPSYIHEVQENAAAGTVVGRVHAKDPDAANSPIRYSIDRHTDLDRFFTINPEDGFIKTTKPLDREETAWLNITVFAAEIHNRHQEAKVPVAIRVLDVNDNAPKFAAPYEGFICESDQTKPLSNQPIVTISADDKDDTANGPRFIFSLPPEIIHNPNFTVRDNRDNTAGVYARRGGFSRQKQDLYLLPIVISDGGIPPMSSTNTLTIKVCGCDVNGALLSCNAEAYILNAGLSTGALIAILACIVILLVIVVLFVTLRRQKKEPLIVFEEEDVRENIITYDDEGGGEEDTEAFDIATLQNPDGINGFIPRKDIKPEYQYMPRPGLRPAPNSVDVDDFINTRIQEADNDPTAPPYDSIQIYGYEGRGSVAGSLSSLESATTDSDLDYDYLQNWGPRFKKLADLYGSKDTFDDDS", "experiment": "proximity ligation; in situ PLA for CDH11 and β-catenin on human fibroblasts treated with 10 ng/mL TGFβ1 or TGFβ1 plus 12 ug/mL cANGPTL4; both proteins endogenous"}, "[2]": {"molecular_target": "T2, CDH11 of fibroblasts in mouse wounds (mouse (endogenous in skin wounds)) (UniProt P55288)", "T2 sequence": "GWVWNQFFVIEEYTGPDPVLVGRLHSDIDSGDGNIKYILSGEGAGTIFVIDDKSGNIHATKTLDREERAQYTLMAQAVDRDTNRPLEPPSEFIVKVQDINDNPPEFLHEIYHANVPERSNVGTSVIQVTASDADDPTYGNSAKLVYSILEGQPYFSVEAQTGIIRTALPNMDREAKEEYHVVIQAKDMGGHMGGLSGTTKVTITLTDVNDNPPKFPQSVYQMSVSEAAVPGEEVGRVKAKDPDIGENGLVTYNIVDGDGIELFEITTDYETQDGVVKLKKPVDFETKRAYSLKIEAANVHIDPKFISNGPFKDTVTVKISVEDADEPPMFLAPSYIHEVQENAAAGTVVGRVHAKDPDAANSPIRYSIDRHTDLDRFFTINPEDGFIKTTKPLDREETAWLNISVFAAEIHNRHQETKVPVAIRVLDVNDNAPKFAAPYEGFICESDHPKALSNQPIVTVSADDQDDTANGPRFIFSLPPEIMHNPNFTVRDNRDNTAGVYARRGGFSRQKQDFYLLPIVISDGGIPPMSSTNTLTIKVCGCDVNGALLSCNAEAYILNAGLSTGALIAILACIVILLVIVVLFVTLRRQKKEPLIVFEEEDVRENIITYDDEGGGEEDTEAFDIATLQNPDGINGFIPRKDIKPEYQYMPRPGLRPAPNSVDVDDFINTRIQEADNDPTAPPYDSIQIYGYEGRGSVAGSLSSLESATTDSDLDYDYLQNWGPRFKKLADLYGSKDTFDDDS", "experiment": "proximity ligation; PLA on sections of mouse wounds (day 5; ANGPTL4+/+, ANGPTL4-/-, ob/ob with vehicle or cANGPTL4); endogenous proteins"}, "[3]": {"molecular_target": "T3, CDH11 in human scar tissues (human (endogenous in scar tissue)) (UniProt P55287)", "T3 sequence": "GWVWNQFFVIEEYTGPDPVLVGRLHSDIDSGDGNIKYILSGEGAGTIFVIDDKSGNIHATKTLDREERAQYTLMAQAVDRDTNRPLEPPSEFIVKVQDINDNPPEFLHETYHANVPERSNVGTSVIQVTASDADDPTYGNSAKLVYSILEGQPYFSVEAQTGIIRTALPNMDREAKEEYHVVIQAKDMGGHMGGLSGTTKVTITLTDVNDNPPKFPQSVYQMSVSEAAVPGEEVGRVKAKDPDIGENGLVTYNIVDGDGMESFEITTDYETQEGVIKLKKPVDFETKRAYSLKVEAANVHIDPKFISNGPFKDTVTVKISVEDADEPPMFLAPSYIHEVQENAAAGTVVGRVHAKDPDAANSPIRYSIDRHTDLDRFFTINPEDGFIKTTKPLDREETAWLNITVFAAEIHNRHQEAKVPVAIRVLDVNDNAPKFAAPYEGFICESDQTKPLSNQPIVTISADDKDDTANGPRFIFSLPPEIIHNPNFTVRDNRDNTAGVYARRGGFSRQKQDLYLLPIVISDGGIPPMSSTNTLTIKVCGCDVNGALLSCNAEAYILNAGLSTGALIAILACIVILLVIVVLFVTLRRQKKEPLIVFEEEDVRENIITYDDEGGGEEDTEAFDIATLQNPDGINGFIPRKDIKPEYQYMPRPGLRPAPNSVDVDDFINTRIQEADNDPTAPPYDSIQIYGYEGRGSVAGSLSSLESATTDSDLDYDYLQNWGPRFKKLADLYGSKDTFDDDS", "experiment": "proximity ligation; PLA on human scar tissues; endogenous proteins"}, "[4]": {"molecular_target": "T4, ID3 in mouse wounds (mouse (endogenous in skin wounds)) (UniProt P41133)", "T4 sequence": "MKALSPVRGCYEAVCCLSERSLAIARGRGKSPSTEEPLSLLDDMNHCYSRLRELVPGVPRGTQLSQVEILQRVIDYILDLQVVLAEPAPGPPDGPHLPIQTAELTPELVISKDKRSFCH", "experiment": "co-IP; immunoprecipitation of ID3 from lysates of day 5 and day 10 cANGPTL4-treated mouse wounds (n = 9); blots for ScxA and E47"}, "[5]": {"molecular_target": "T2, CDH11 of fibroblasts in mouse wounds (mouse (endogenous in skin wounds))", "experiment": "proximity ligation; PLA on sections of ob/ob mouse wounds treated topically with exogenous recombinant cANGPTL4; only the binder purified"}, "[6]": {"molecular_target": "CDH2 (also known as N-cadherin), endogenous in human fibroblasts (human (endogenous in primary dermal fibroblasts)) (UniProt P19022)", "experiment": "proximity ligation; in situ PLA on human fibroblasts treated with 10 ng/mL TGFβ1 or TGFβ1 plus 12 ug/mL recombinant cANGPTL4; PLA spots per nucleus, 50 nuclei per condition; only the binder purified"}, "[7]": {"molecular_target": "T1, cadherin-11 (CDH11), endogenous in human primary dermal fibroblasts (human (endogenous in primary dermal fibroblasts))", "experiment": "proximity ligation; in situ PLA on human fibroblasts treated with 10 ng/mL TGFβ1 or TGFβ1 plus 12 ug/mL recombinant cANGPTL4; PLA spots per nucleus, 50 nuclei per condition; only the binder purified"}, "[8]": {"molecular_target": "T1, cadherin-11 (CDH11), endogenous in human primary dermal fibroblasts (human (endogenous in primary dermal fibroblasts))", "experiment": "co-IP; immunoprecipitation with anti-CDH11 or anti-Frizzled from lysates of human fibroblasts treated with TGFβ in the absence or presence of recombinant cANGPTL4; blot for cANGPTL4; only the binder purified"}, "[9]": {"molecular_target": "T5, Inhibitor of DNA-binding/differentiation protein 3 (ID3), endogenous in human primary fibroblasts (human (endogenous in primary fibroblasts)) (UniProt Q02535)", "T5 sequence": "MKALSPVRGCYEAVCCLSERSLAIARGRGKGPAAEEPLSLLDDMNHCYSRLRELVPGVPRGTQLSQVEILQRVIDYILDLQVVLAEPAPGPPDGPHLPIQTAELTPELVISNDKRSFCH", "experiment": "co-IP; immunoprecipitation with anti-ID3 from primary human fibroblasts; blots for ScxA and E47"}, "[10]": {"molecular_target": "T6, Inhibitor of DNA-binding/differentiation protein 3 (ID3), endogenous in human primary fibroblasts (human (endogenous in primary fibroblasts)), Q02535", "T6 chain": "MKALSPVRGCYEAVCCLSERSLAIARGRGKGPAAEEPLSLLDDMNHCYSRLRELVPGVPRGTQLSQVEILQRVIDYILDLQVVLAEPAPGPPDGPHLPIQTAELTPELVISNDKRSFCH", "experiment": "co-IP; immunoprecipitation with anti-ID3 from primary human fibroblasts; blots for ScxA and E47", "details": "remark: other sources report otherwise"}}, "note": "No constants are given. Whether binding was seen depends on the method and setting. In cells and extracts the contact can be indirect. Some entries that bind do so weakly or less than the wild type.", "data": [{"molecule": "β-catenin, endogenous in human primary dermal fibroblasts (from UniProt P35222 1-781)", "values": [{"measurement": "binding", "setting": "[1]", "result": "binds"}]}, {"molecule": "β-catenin in mouse wounds (from UniProt Q02248 1-781)", "values": [{"measurement": "binding", "setting": "[2]", "result": "binds"}]}, {"molecule": "cANGPTL4 in human scar tissues (domain or fragment, UniProt Q9BY76 179-401) SRLHRLPRDCQELFQVGERQSGLFEIQPQGSPPFLVNCKMTSDGGWTVIQRRHDGSVDFNRPWEAYKAGFGDPHGEFWLGLEKVHSITGDRNSRLAVQLRDWDGNAELLQFSVHLGGEDTAYSLQLTAPVAGQLGATTVPPSGLSVPFSTWDQDHDLRRDKNCAKSLSGGWWFGTCSHSNLNGQYFRSIPQQRQKLKKGIFWKTWRGRYYPLQATTMLIQPMA", "values": [{"measurement": "binding", "setting": "[3]", "result": "binds"}]}, {"molecule": "ScxA in mouse wounds (protein, UniProt Q64124 1-207) MSFAMLRSAPPPGRYLYPEVSPLSEDEDRGSESSGSDEKPCRVHAARCGLQGARRRAGGRRAAGSGPGPGGRPGREPRQRHTANARERDRTNSVNTAFTALRTLIPTEPADRKLSKIETLRLASSYISHLGNVLLVGEACGDGQPCHSGPAFFHSGRAGSPLPPPPPPPPLARDGGENTQPKQICTFCLSNQRKLSKDRDRKTAIRS", "values": [{"measurement": "binding", "setting": "[4]", "result": "binds"}]}, {"molecule": "recombinant human cANGPTL4 (C-terminal fibrinogen-like domain of angiopoietin-like 4) (domain or fragment, UniProt Q9BY76 179-401, looked up, angiopoietin-like 4 (ANGPTL4), human, C-terminal fibrinogen-like domain (cANGPTL4); also called recombinant cANGPTL4 protein; source: purified protein for SPR, added to fibroblast cultures and applied to wounds) SRLHRLPRDCQELFQVGERQSGLFEIQPQGSPPFLVNCKMTSDGGWTVIQRRHDGSVDFNRPWEAYKAGFGDPHGEFWLGLEKVHSITGDRNSRLAVQLRDWDGNAELLQFSVHLGGEDTAYSLQLTAPVAGQLGATTVPPSGLSVPFSTWDQDHDLRRDKNCAKSLSGGWWFGTCSHSNLNGQYFRSIPQQRQKLKKGIFWKTWRGRYYPLQATTMLIQPMA", "values": [{"measurement": "binding", "setting": "[5]", "result": "binds"}, {"measurement": "binding", "setting": "[6]", "result": "binds weakly"}, {"measurement": "binding", "setting": "[7]", "result": "binds"}, {"measurement": "binding", "setting": "[8]", "result": "binds"}]}, {"molecule": "scleraxis (ScxA), endogenous in human primary fibroblasts (protein, UniProt Q7RTU7 1-201) MSFATLRPAPPGRYLYPEVSPLSEDEDRGSDSSGSDEKPCRVHAARCGLQGARRRAGGRRAGGGGPGGRPGREPRQRHTANARERDRTNSVNTAFTALRTLIPTEPADRKLSKIETLRLASSYISHLGNVLLAGEACGDGQPCHSGPAFFHAARAGSPPPPPPPPPARDGENTQPKQICTFCLSNQRKLSKDRDRKTAIRS", "values": [{"measurement": "binding", "setting": "[9]", "result": "binds"}]}, {"molecule": "endogenous cANGPTL4 in mice wounds (domain or fragment, UniProt Q9Z1P8 183-405) THLHRPPRDCQELFQEGERHSGLFQIQPLGSPPFLVNCEMTSDGGWTVIQRRLNGSVDFNQSWEAYKDGFGDPQGEFWLGLEKMHSITGNRGSQLAVQLQDWDGNAKLLQFPIHLGGEDTAYSLQLTEPTANELGATNVSPNGLSLPFSTWDQDHDLRGDLNCAKSLSGGWWFGTCSHSNLNGQYFHSIPRQRQERKKGIFWKTWKGRYYPLQATTLLIQPME", "values": [{"measurement": "binding", "setting": "[2]", "result": "binds"}]}, {"molecule": "E12/E47, endogenous in human primary fibroblasts, P15923 1-654 (protein) MNQPQRMAPVGTDKELSDLLDFSMMFPLPVTNGKGRPASLAGAQFGGSGLEDRPSSGSWGSGDQSSSSFDPSRTFSEGTHFTESHSSLSSSTFLGPGLGGKSGERGAYASFGRDAGVGGLTQAGFLSGELALNSPGPLSPSGMKGTSQYYPSYSGSSRRRAADGSLDTQPKKVRKVPPGLPSSVYPPSSGEDYGRDATAYPSAKTPSSTYPAPFYVADGSLHPSAELWSPPGQAGFGPMLGGGSSPLPLPPGSGPVGSSGSSSTFGGLHQHERMGYQLHGAEVNGGLPSASSFSSAPGATYGGVSSHTPPVSGADSLLGSRGTTAGSSGDALGKALASIYSPDHSSNNFSSSPSTPVGSPQGLAGTSQWPRAGAPGALSPSYDGGLHGLQSKIEDHLDEAIHVLRSHAVGTAGDMHTLLPGHGALASGFTGPMSLGGRHAGLVGGSHPEDGLAGSTSLMHNHAALPSQPGTLPDLSRPPDSYSGLGRAGATAAASEIKREEKEDEENTSAADHSEEEKKELKAPRARTSPDEDEDDLLPPEQKAEREKERRVANNARERLRVRDINEAFKELGRMCQLHLNSEKPQTKLLILHQAVSVILNLEQQVRERNLNPKAACLKRREEEKVSGVVGDPQMVLSAPHPGLSEAHNPAGHM", "values": [{"measurement": "binding", "setting": "[10]", "result": "no binding"}]}]}
